Test results: the supplement of paper PMC4723716
± gives the uncertainty stated by the source. Whole data set: some 9,900 compounds, median “viability index relative to DMSO control” near 1, cut for the lowest 2% near 0.85. The list shows a part of the results.

system: Plasmodium falciparum NF54 stage V gametocytes; test: viability index relative to DMSO control (fraction); higher = less gametocyte killing; conditions: 2.5 µM, library set: Broad Institute DOS, incubation time: 72 h
How it was run: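 P. falciparum NF54 stage V gametocytes in serum-free screening medium (0.75% gametocytemia, 1.25% hematocrit, 10 µl) were incubated with compound at 2.5 µM in 1,536-well plates for 72 hr at 37°C under low oxygen. Then 3 µl of 2.5 µM MitoTracker Red CMXRos plus 0.13% saponin was added for one to two hours. One field per well was imaged, 20–70 µm2 red particles were counted, and the viability index was the count divided by the plate mean of DMSO wells.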

Row | SMILES | viability index
1 | Cn1cnc(S(=O)(=O)N2[C@@H]3CNC[C@H]2[C@@H]3c2ccc(/C=C/c3ccccc3)cc2)c1 | 1.12 ± 0.063
2 | O=C(C[C@@H]1CC[C@@H]2NC[C@H](O)COC[C@H]2O1)N1CCc2ccccc2C1 | 1.07 ± 0.15
3 | O=C(Cc1ccccc1)N1CC[C@H]2[C@H](CO)Nc3ccc(C#Cc4cccc(F)c4)cc3[C@H]21 | 1.13 ± 0.028
4 | CO[C@@H]1CN(C)C(=O)c2ccc(NC(=O)NC3CCCCC3)cc2OC[C@@H](C)NC[C@H]1C | 1.01 ± 0.11
5 | CS(=O)(=O)Nc1ccc2c(c1)[C@@H]1C[C@H](CC(=O)NCc3cc(F)ccc3F)O[C@H](CO)[C@@H]1O2 | 1.09 ± 0.08
6 | C[C@H](NC(=O)C[C@@H]1C=C[C@H](NS(=O)(=O)c2cccc(F)c2)[C@H](CO)O1)c1ccccc1 | 1.08 ± 0.11
7 | COc1ccc(C[C@H]2CCn3nncc3COCCCNC2=O)cc1 | 1.04 ± 0.017
8 | CC(=O)N1[C@H](CN(CC(C)C)C(=O)c2ccccn2)[C@@H](c2ccccc2)[C@@H]1CO | 1.09 ± 0.021
9 | COC(=O)C[C@@H]1CC[C@@H]2[C@H](COc3ccc(NC(=O)c4ccc(C(F)(F)F)cc4)cc3C(=O)N2C)O1 | 1.02 ± 0.021
10 | O=C(C[C@@H]1CC[C@H](NC(=O)c2ccc(F)cc2)[C@H](CO)O1)NCCc1ccccc1 | 1.1 ± 0.14
11 | C[C@@H]1CN([C@H](C)CO)C(=O)c2cc(NC(=O)Cn3cnnn3)ccc2O[C@H]1CN(C)Cc1ccc(C(=O)Nc2ccccc2N)cc1 | 1.11 ± 0.014
12 | CCNC(=O)[C@@H]1[C@@H](CO)[C@@H]2Cn3c(ccc(/C=C/c4ccccc4)c3=O)[C@H]1N2C(=O)c1ccncc1 | 1.059 ± 0.0075
13 | CCS(=O)(=O)N1CC(=O)N2[C@H](CO)[C@@H](c3ccc(C#CC4CCCCC4)cc3)[C@@H]2C1 | 1.07 ± 0.043
14 | C[C@H](NC(=O)[C@@H]1[C@@H](CO)[C@@H]2Cn3c(cccc3=O)[C@H]1N2C(=O)C1CCC1)c1ccccc1 | 1.12 ± 0.028
15 | COC(=O)C[C@@H]1CC[C@H]2[C@@H](COc3ccc(NS(=O)(=O)c4ccc(C)cc4)cc3C(=O)N2C)O1 | 1.07 ± 0.083
16 | COc1ccc(S(=O)(=O)Nc2ccc3c(c2)[C@H]2C[C@H](CC(=O)N(C)C)O[C@@H](CO)[C@H]2O3)cc1 | 1.11 ± 0.014
17 | COc1ccc(S(=O)(=O)N(C)C[C@H]2Oc3ccc(NC(=O)Cc4cn(C)c5ccccc45)cc3C(=O)N([C@@H](C)CO)C[C@H]2C)cc1 | 0.989 ± 0.086
18 | CS(=O)(=O)N1C[C@H](O)COC[C@H]2O[C@@H](CC(=O)NCc3ccccc3)CC[C@@H]21 | 1.1 ± 0.096
19 | COCC(=O)Nc1ccc2c(c1)[C@@H]1C[C@H](CC(=O)N3CCOCC3)O[C@@H](CO)[C@@H]1O2 | 1.158 ± 0.0067
20 | CS(=O)(=O)N1[C@H](CO)[C@@H](c2ccc(C#Cc3cccc(F)c3)cc2)[C@@H]1C#N | 1.02 ± 0.017
21 | N#Cc1cccc(-c2ccc([C@@H]3[C@H]4CN(Cc5ccccc5F)CCCCN4[C@H]3CO)cc2)c1 | 0.968 ± 0.025
22 | Cc1noc(C)c1NC(=O)Nc1ccc2c(c1)C(=O)N(C)[C@H]1CC[C@@H](CC(=O)N[C@H]3CCN(Cc4ccccc4)C3)O[C@@H]1CO2 | 1.13 ± 0.09
23 | CN(C[C@H]1[C@@H](c2ccccc2)[C@@H](CO)N1Cc1ccccn1)S(C)(=O)=O | 1.02 ± 0.058
24 | COc1ccc(NC(=O)Nc2cccc3c2O[C@@H](CN(C)Cc2ccc(C(=O)O)cc2)[C@H](C)CN([C@@H](C)CO)C3=O)cc1 | 0.978 ± 0.065

Row | SMILES | viability index
25 | COc1cccc(-c2ccc([C@H]3[C@H]4CNC[C@@H]3N4Cc3nccs3)cc2)c1 | 1.13 ± 0.065
26 | O=C(NCc1cccc(F)c1)[C@H]1[C@H](CO)[C@H]2Cn3c(ccc(-c4ccncc4)c3=O)[C@@H]1N2CC1CC1 | 1.07 ± 0.033
27 | O=C(O)C[C@@H]1C=C[C@@H](NC(=O)Nc2cc(F)ccc2F)[C@@H](CO)O1 | 1.056 ± 0.0094
28 | N#C[C@@H]1[C@H](c2ccccc2C2=CCCC2)[C@@H](CO)N1C(=O)Cc1ccncc1 | 1.16 ± 0.099
29 | C[C@@H]1CCCCO[C@H](CN(C)C(=O)Nc2ccccc2)[C@H](C)CN([C@@H](C)CO)C(=O)c2cc(NC(=O)Nc3ccccc3)ccc2O1 | 1.05 ± 0.054
30 | C[C@H](CO)N1C[C@H](C)[C@@H](CN(C)Cc2ccc3cccnc3c2)OCc2cnnn2CCCC1=O | 1.07 ± 0.014
31 | C[C@H](CO)N1C[C@H](C)[C@@H](CN(C)S(=O)(=O)c2ccc(Oc3ccccc3)nc2)OCc2cnnn2CCCC1=O | 1.04 ± 0.038
32 | C[C@H]1CC(=O)N[C@@H](c2ccccc2)C/C=C\C[C@H](c2ccccc2)NC1=O | 1.014 ± 0.0056
33 | O=C(c1ccccn1)N1CC[C@H]2[C@H](CO)Nc3ccc(Br)cc3[C@H]21 | 1.14 ± 0.023
34 | CO[C@@H]1CN(C)C(=O)c2cc(NC(C)=O)ccc2OC[C@@H](C)N(S(C)(=O)=O)C[C@H]1C | 1.02 ± 0.046
35 | C[C@@H]1CCCCO[C@H](CN(C)Cc2ccc(C(=O)O)cc2)[C@@H](C)CN([C@H](C)CO)C(=O)c2cc(N(C)C)ccc2O1 | 1.144 ± 0.0068
36 | CCC(=O)N1[C@H](CO)[C@@H](c2ccccc2)C12CN(C(=O)c1ccncc1)C2 | 1.09 ± 0.069
37 | O=C(Nc1ccccc1)N1C[C@@H]2N[C@H](C1)[C@@H]2c1ccc(-c2cccnc2)cc1 | 1.11 ± 0.056
38 | CN1CCN(C(=O)[C@@H]2[C@@H](CO)[C@@H]3Cn4c(cccc4=O)[C@@H]3N2Cc2cc(F)ccc2F)CC1 | 0.957 ± 0.0097
39 | C[C@@H](NC(=O)C[C@@H]1C[C@@H]2c3cc(NS(=O)(=O)c4ccc(F)cc4)ccc3O[C@@H]2[C@@H](CO)O1)c1ccccc1 | 1.09 ± 0.052
40 | CCCC(=O)N1CC[C@@]2(CC1)CN([C@@H](CO)c1[nH]c3cc(OC)ccc3c21)C(=O)Cc1ccccn1 | 0.947 ± 0.12
41 | Cc1noc(C)c1S(=O)(=O)N(C)C[C@@H]1OCCCC[C@H](C)Oc2ccc(NC(=O)CCC(F)(F)F)cc2C(=O)N([C@H](C)CO)C[C@H]1C | 0.984 ± 0.041
42 | COc1ccccc1S(=O)(=O)N1CC[C@H]2[C@H](CO)Nc3ccc(-c4ccc(C#N)cc4)cc3[C@H]21 | 1.02 ± 0.077
43 | Cc1noc(C)c1C(=O)N(C)C[C@@H]1OCc2ccccc2-c2ccccc2C(=O)N([C@@H](C)CO)C[C@H]1C | 1.01 ± 0.054
44 | COc1ccc2c3c([C@@H](CO)N(C[C@]33CCN(CC3)C(=O)c3ccccc3)C(=O)c3ccccc3)n(C)c2c1 | 0.761 ± 0.011
45 | O=C(C1CCCC1)N1CC2(C1)[C@H](c1ccccc1)[C@@H](CO)N2Cc1ccc(Cl)cc1 | 1.05 ± 0.024
46 | O=C(Cc1cccnc1)N1CC2(C1)[C@@H](c1ccccc1)[C@H](CO)N2C(=O)C1CCOCC1 | 1.12 ± 0.05
47 | C[C@H](NC(=O)C[C@@H]1C=C[C@H](NS(=O)(=O)c2cccc(F)c2)[C@@H](CO)O1)c1ccccc1 | 1.13 ± 0.08
48 | Cc1noc(C)c1S(=O)(=O)Nc1ccc2c(c1)C(=O)N([C@H](C)CO)C[C@@H](C)[C@@H](CN(C)Cc1ccc(C(=O)O)cc1)OCCCC[C@H](C)O2 | 1.125 ± 0.0076

Row | SMILES | viability index
49 | C[C@@H]1CN([C@H](C)CO)C(=O)CCCn2nncc2CO[C@H]1CN(C)C(=O)Nc1ccnc(N2CCOCC2)c1 | 0.94 ± 0.061
50 | CCC(=O)N1[C@H](CO)[C@H](c2ccc(-c3cncnc3)cc2)[C@@H]1CN(C)C(C)=O | 0.994 ± 0.065
51 | C[C@@H]1CN([C@@H](C)CO)C(=O)c2ccccc2-c2ccccc2CO[C@H]1CN(C)C(=O)NC1CCCCC1 | 0.9751 ± 0.0056
52 | CO[C@@H]1CN(C)C(=O)c2ccc(NC(=O)C3CC3)cc2OC[C@@H](C)N(C(C)=O)C[C@H]1C | 1.06 ± 0.022
53 | CO[C@@H]1CC[C@@H]2CCOc3c(C#N)cccc3C(=O)N(C)C[C@@H](OC)[C@@H](C)C(=O)N(C)C[C@H]1O2 | 1.03 ± 0.013
54 | CCCNC(=O)N1C[C@@]2(C1)CN([C@H](CO)c1[nH]c3cc(OC)ccc3c21)C(=O)CN1CCOCC1 | 0.983 ± 0.057
55 | O=C(Nc1ccccc1F)N1CCCCN2[C@H](CO)[C@H](c3ccc(/C=C/c4ccccc4)cc3)[C@@H]2C1 | 1.01 ± 0.021
56 | COc1ccccc1C#Cc1ccc([C@@H]2[C@@H](CO)N3CCCCN(C(=O)C4CCC4)C[C@@H]23)cc1 | 1 ± 0.076
57 | O=C(c1cccnc1)N1CC2(C1)[C@H](c1ccccc1)[C@H](CO)N2C(=O)CC1CC1 | 1.016 ± 0.0087
58 | COc1ccc2c3c([C@@H](CO)N(C[C@]33CN(Cc4ccncc4)C3)C(=O)CC3CC3)n(C)c2c1 | 1.09 ± 0.0047
59 | O=C(N[C@H]1CC[C@H](CCNS(=O)(=O)c2ccc(F)cc2)O[C@H]1CO)C1CCC1 | 1.09 ± 0.051
60 | C[C@H]1CN([C@@H](C)CO)C(=O)c2c(c3ccccc3n2C)-c2ccccc2CO[C@H]1CN(C)C(=O)[C@H](Cc1ccccc1)N(C)C | 1.07 ± 0.059
61 | O=C(CC(F)(F)F)N1C[C@H]2[C@@H](c3ccccc31)[C@H](CO)N2C(=O)c1ccncc1 | 0.981 ± 0.099
62 | Cc1nc(N2[C@@H](C#N)[C@@H](c3ccccc3)[C@@H]2CO)sc1C | 1.04 ± 0.11
63 | C[C@@H]1CN([C@H](C)CO)C(=O)c2cccc(NC(=O)c3ccno3)c2O[C@H]1CN(C)S(=O)(=O)c1cccs1 | 0.948 ± 0.1
64 | CCOC(=O)c1cc2c(c(-c3cccc(Br)c3)n1)[C@H](CCO)N(C(=O)NC(C)C)C2 | 1.07 ± 0.12
65 | N#C[C@@H]1N[C@@H](CO)[C@H]1c1ccc(C#CC2CCCCC2)cc1 | 1.03 ± 0.031
66 | C/C=C/c1ccc([C@H]2[C@H]3CN(S(=O)(=O)c4ccc(OC)cc4)CCCCN3[C@H]2CO)cc1 | 1.01 ± 0.044
67 | C(=C\c1ccc([C@@H]2[C@H]3CNC[C@@H]2N3Cc2nccs2)cc1)/c1ccccc1 | 1.1 ± 0.02
68 | COCC(=O)N1CC[C@@]2(CC1)CN([C@@H](CO)c1[nH]c3cc(OC)ccc3c21)S(C)(=O)=O | 1.09 ± 0.06
69 | CCCNC(=O)N1CC[C@@]2(CC1)CN(Cc1ccccn1)[C@@H](CO)c1c2c2ccc(OC)cc2n1C | 1.02 ± 0.064
70 | CO[C@H]1CC[C@H]2CCOc3c(C#N)cccc3C(=O)N(C)C[C@@H](OC)[C@@H](C)C(=O)N(C)C[C@H]1O2 | 1.04 ± 0.058
71 | COc1ccc(-c2ccc([C@@H]3[C@@H](C#N)N(C(=O)NC(C)C)[C@H]3CO)cc2)cc1 | 1.09 ± 0.015
